Measurements published in article PMC4336329 (PLoS ONE, 2015).
In all, about 310,000 compounds went through this assay and about 2,200 (0.71%) showed an effect of 50% or more. Effects have a minus sign here. Some of the results follow. Where a SMILES comes first, the peptide text is derived from it. [ ]: non-standard residue; d: D form. The star is where a group is joined. ξ: configuration not given here. ξArg(NO2) = N=C(NCCCC(N)C(=O)O)N[N+](=O)[O-]; Bz = O=C(c1ccccc1)*

The compounds below were run against human ether-à-go-go-related gene (hERG) potassium channel (human, UniProt Q12809) (assay: primary screen, population patch clamp on CHO cells stably expressing hERG).
Sequence of human ether-à-go-go-related gene (hERG) potassium channel (Q12809 whole entry, looked up): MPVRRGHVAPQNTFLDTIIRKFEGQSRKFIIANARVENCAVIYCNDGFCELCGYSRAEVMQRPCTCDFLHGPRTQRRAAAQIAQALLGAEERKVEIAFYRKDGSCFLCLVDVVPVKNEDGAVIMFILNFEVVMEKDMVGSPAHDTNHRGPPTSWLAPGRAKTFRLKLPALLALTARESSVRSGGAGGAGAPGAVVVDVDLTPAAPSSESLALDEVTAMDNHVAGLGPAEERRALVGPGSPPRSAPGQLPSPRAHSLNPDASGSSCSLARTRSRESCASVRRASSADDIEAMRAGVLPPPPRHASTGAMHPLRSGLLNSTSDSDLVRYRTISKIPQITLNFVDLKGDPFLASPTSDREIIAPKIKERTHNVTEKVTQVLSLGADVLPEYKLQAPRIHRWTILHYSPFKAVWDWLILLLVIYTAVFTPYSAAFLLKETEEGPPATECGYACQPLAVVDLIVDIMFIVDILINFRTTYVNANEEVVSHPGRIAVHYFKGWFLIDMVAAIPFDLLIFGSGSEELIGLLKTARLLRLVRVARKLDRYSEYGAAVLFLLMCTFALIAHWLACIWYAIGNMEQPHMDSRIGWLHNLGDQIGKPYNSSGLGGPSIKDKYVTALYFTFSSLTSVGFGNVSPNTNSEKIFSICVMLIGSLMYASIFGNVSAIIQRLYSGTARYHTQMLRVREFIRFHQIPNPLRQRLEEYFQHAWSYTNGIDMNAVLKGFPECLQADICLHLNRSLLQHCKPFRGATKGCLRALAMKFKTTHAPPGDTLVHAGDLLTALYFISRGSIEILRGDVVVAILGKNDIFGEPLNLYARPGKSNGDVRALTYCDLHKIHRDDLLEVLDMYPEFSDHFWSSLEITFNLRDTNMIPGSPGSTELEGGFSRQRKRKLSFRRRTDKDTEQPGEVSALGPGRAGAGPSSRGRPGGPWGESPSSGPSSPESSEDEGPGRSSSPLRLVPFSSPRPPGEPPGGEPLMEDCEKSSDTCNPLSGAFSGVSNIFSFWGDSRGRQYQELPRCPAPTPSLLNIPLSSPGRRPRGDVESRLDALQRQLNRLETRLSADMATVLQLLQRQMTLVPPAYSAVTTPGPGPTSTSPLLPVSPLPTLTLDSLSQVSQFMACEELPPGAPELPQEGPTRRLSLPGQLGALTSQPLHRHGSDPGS

Compound | hERG current change (%, negative = inhibition) at 1uM [%]
Nc1nc2ncc(-c3ccsc3)c(N)n2n1 | -9.44
CC(C)CCC1(CCNC(C)c2cccs2)CCOC(C)(C)C1 (centres unmarked) | 9.66
CCOC(=O)N1CCN(C(=O)c2ccc(NS(C)(=O)=O)cc2)CC1 | 6.24
CCOC(=O)N1CCN(S(=O)(=O)c2ccc(C(=O)Nc3sc4c(c3C(N)=O)CC(C)(C)NC4(C)C)cc2)CC1 | 21.2
Fc1ccc(Nc2nnc(C(F)(F)F)s2)cc1Cl | 10.6
Cc1ccc(N2C(=O)C3CC(c4ccccc4)=C4C5C=CC(C6C(=O)N(c7ccc(C)cc7C)C(=O)C56)C4C3C2=O)c(C)c1 (centres unmarked) | 3.95
N/C(=N\OC(=O)c1csnn1)c1ccc(C(F)(F)F)cc1 | 5.2
CC(C)(C)NC(=O)CN(C(=O)c1snc(C(=O)NC2CCCCC2)c1N)c1ccc(F)cc1 | 8.62
NNC(=O)CN1C(=O)CN=C(c2ccccc2)c2cc(Br)ccc21 | 5.59
COc1cc(SC)ccc1C(=O)NCCOc1c(C)cc(C)cc1C | 5.5
O=C(C1CCN(Cc2cc(Cl)ccc2O)CC1)N1CCN(Cc2ccccc2)CC1.O=C(O)C(=O)O | 8.19
C#CCSc1nnc(-c2ccc(C)cc2)o1 | -5.3
CCOC(=O)c1cc(-c2csc(COc3ccccc3Cl)n2)on1 | 8.86
O=C(CS(=O)(=O)c1ccccc1)NCc1ccccc1 | -4.91
Cc1nc(OCC(=O)c2ccc(Cl)cc2)c(C#N)c2c1COC(C)(C)C2 | 7.3
COc1ccc(-c2noc(CCCC(=O)NC3CCCC3)n2)cc1 | 12
O=C(O)C1C2CCC(O2)C1C(=O)NCCC1=CCCCC1 (centres unmarked) | 9.85
CCOC(=O)c1cccc(NC(=O)CCNS(=O)(=O)c2cc(Br)cnc2N)c1 | 14.4
COCCNc1nc2nonc2nc1N1C[C@H]2CC[C@H]1C2 | 9.25
CN(C(=O)c1ccc(S(=O)(=O)c2cccc(Cl)c2)c([N+](=O)[O-])c1)C1CCCCC1 | -2.35
CCOc1ccc(OCCSc2nnnn2C2CCCCC2)cc1 | -0.0753
CC(C)(C)C(=O)NC(=S)N1CCc2ccccc21 | 10.8
Cc1ccc(NS(=O)(=O)c2ccc3c(c2)NC(=O)CC(=O)N3)cc1C | 17

Compound | hERG current change (%, negative = inhibition) at 1uM [%]
Cc1ccc(Nc2nc(-c3cccnc3)cs2)cc1C | 9.64
CCOC(=O)/C=C/S(=O)(=O)c1ccc(NC(C)=O)cc1 | 19.5
O=C(NC1CCCCC1)C(c1ccc(F)cc1)N(Cc1ccco1)C(=O)c1ccccn1 (centres unmarked) | 9.86
CCOc1cc(CNC(C)(C)CO)cc(Br)c1OCc1ccc(Cl)cc1Cl | 13.6
C=C(C)Cn1c(NCCOC)nc2c1c(=O)[nH]c(=O)n2C | 11
COc1ccc(CCC(=O)Nc2cc(S(=O)(=O)N3CCCCC3)ccc2N(C)C)cc1 | -8.44
Cc1ccc(C(=O)NC(C)c2ccc(-n3ccnc3)cc2)cc1 (centres unmarked) | -8.95
COc1cc(-c2nnc(NC(=O)CS(=O)(=O)c3ccc(C)cc3)o2)cc(OC)c1OC | 17.1
O=C(CN1C(=O)C2C3CCC(C3)C2C1=O)OCC(=O)c1ccc(Br)cc1 (centres unmarked) | 1.5
CCCNC(=O)CSc1nccn1Cc1ccco1 | 14
CCOC(=O)NC(=O)COC(=O)CNC(=O)c1ccc(OCC)c(OCC)c1 | 4.99
CC(C)NS(=O)(=O)c1ccc(OCC(=O)N2CCc3ccccc3C2)cc1 | 14.8
COc1cc2nc(C3CCC3)n(NC(=O)C3CCC3)c(=O)c2cc1OC | 15.7
Cc1[nH]c2ccccc2c1C(=O)C(=O)N1CCN(c2ccccc2F)CC1 | 13.1
CC1(C)NC(=O)N(CC(O)CNC23CC4CC(CC(C4)C2)C3)C1=O (centres unmarked) | 10.4
Clc1ccc(-c2csc(-c3ccncc3)n2)cc1 | 6.31
Cc1nnc(SCC(=O)N2CCC(C(N)=O)CC2)s1 | 10.1
CCOc1ccc(N2CC(C(=O)Nc3cc(C)on3)CC2=O)cc1 (centres unmarked) | 2.53
CCOC(=O)Cn1cnc2c(nnn2-c2cccc(Cl)c2)c1=O | -4.56
Cc1ccc(-c2nnn(CC(=O)N3CCCc4ccccc43)n2)cc1 | -3.16
COc1ccc(S(=O)(=O)N(C)CC(=O)Nc2ccc3c(c2)OCCO3)cc1 | 4.6
CN(C)NC1CCS(=O)(=O)C1.Cl (centres unmarked) | 12.3
COc1cc([N+](=O)[O-])ccc1NC(=O)C[n+]1ccccc1C.[Cl-] | 13

Compound | hERG current change (%, negative = inhibition) at 1uM [%]
CN(C(=S)NC(=O)c1ccccc1)C1CCCCC1 | -4.47
CCCNC(=O)c1ccccc1NC(=O)c1ccc2c(c1)NC(=O)C(C)S2 (centres unmarked) | 7.72
CCO[C@@H]1OC(C(=O)NCc2ccccc2)=C[C@H](c2cn(C(C)=O)c3ccccc23)[C@H]1CCCO | 11
N/C(=N\[N+](=O)[O-])NCCCC(NC(=O)CNC(=O)c1ccccc1)C(=O)O (centres unmarked) (Bz-Gly-[ξArg(NO2)]-OH) | 9.59
O=C(NCC1CCCO1)c1nc2c(nnn2Cc2ccccc2Cl)c(=O)[nH]1 (centres unmarked) | -1.62
CCCCN1C(=O)C(=O)N(CC(=O)c2ccc[nH]2)C1=O | 17.5
COc1ccc(NC(=O)CSc2ncn[nH]2)c([N+](=O)[O-])c1 | 1.14
O=C(NCCc1ccncc1)Nc1ccc(Cl)cc1 | -7.61
Cn1ncc([N+](=O)[O-])c1C(=O)Nc1ccccc1 | 11.8
COc1cc(CCC(=O)OCC(=O)Nc2ccccc2OC(F)F)cc(OC)c1OC | 3.49
Cc1ccc(Cl)c2c1NC(=O)C2(O)CC(=O)c1ccc(F)cc1 (centres unmarked) | 7.1
CCOc1ccc(-c2nnn(CC(=O)c3cc(OC)ccc3OC)n2)cc1 | 6.83
Cc1cccc2nc(=S)n(C(=O)c3ccco3)n12 | 9.54
COc1ccc(-c2nc(CS(=O)(=O)CC(=O)NCCc3ccccc3)c(C)o2)cc1 | 28.1
OCC[C@@H]1C[C@@H](O)[C@H](O)[C@@]2(Cc3ccccc3CO2)O1 | 13.5
O=C(COC(=O)c1ccccc1NCCO)Nc1cc(C(F)(F)F)ccc1N1CCOCC1 | -17.4
CS(=O)(=O)Nc1ccc(S(=O)(=O)Nc2nccs2)cc1 | 6.6
Cc1ccc(C(=O)NCCc2sc(C)nc2C)cc1 | 24.5
COC(=O)c1sccc1NS(=O)(=O)c1ccccc1 | 15.6
N#Cc1c2n(c(=S)n(-c3ccc(OC(F)F)cc3)c1=O)CCCCC2 | 1.46
CCOc1cc(N2CCOCC2)c(OCC)cc1NC(=S)NCCCOC | 9.36
COc1cc(CNc2ncc(-c3ccc(Br)cc3)n2C)cc(OC)c1O.O=C(O)C(=O)O | -25.5
O=C(O)CCC(=O)Nc1ccccc1C(=O)NCc1ccco1 | 11.9

Compound | hERG current change (%, negative = inhibition) at 1uM [%]
Cc1cc(C(=O)COC(=O)CNS(=O)(=O)c2ccc3ccccc3c2)c(C)n1-c1ccccc1 | 18.9
CCN(Cc1cc(=O)n2cc(Cl)c(C)c(Cl)c2n1)Cc1nc2ccccc2c(=O)[nH]1 | -9.62
O=C(CSc1ccccc1)Nc1nnc(COc2ccc(Cl)cc2)s1 | 3.34
Cc1ccc(SCCNCc2ccco2)cc1.Cl | 9.79
CC(=O)/C(N=Nc1ccc(OC(F)(F)F)cc1)=C(\C)O | 8.19
CCCCCOc1ccc2oc(=O)c3c(c2c1)CCCN3C(=O)CN1CCCC(C(=O)OCC)C1 (centres unmarked) | 6.69
CCOc1cc(C(C(=O)NCC2CCCO2)N(C(=O)Cn2nnc3ccccc32)c2ccc(OC)c(OC)c2)ccc1O (centres unmarked) | 12.7
COc1ccc(NC(=S)Nc2ccc3nsnc3c2)cc1 | 15.1
O=C(Nc1cccnc1)c1cc(Br)c(Br)s1 | 5.59
CCC(N1CCOC1=O)S(=O)(=O)c1ccc(C)cc1 (centres unmarked) | 11.9
O=S(=O)(NCCCc1ccccc1)c1cccc2nsnc12 | 7.89
Cl.OC(c1cccc(Cl)c1)c1nccc2ccccc12 (centres unmarked) | 13.6
Cc1ccc(CC2SC(N=C(N)N)=NC2=O)cc1 (centres unmarked) | 15.2
CCOC(=O)N1CCC(N2CCN(CCC(C)C)C(CCO)C2)CC1 (centres unmarked) | -2.19
COC(=O)[C@H](Cc1ccccc1)NC(=O)N1CCN(c2ccc(F)cc2)CC1 | 6.96
CCN(CC(=O)Nc1c(F)cccc1F)C(=O)Cn1[nH]c(=O)c2ccccc2c1=O | 1.04
Cn1cnnc1SCC(=O)Nc1ccc(Oc2ccccc2)cc1 | 10
CCc1ccc(-c2nc(CSCC(=O)N3CCN(c4ccccn4)CC3)c(C)o2)cc1 | 6.76
CCn1c(SCC(N)=O)nnc1-c1cc2c(C)nn(-c3ccccc3)c2s1 | -8.6
Cc1cc(=O)oc2cc(OCC(=O)Nc3nccs3)ccc12 | 12.9
